Experimental data from the supplement of paper PMC10126150.
Values marked as one replicate rest on one cluster of the flow cell; about a third of the high ones do not repeat.

Each sequence was assayed on ATP (assay: switch fluorescence ratio, 500 uM ATP over buffer (Cy3 cluster intensity, sum of 5 cycles each) (fold (ratio)); higher = stronger signal-on switching upon ATP binding; sequences stand for … in TCGTCGGCAGCGTCAGATGTGTATAAGAGACAGTTTTTTTTTTTTTTTTTTTTTTTTT…TC). Conditions: aptamer strand: ATP DNA aptamer (quencher-CACCTGGGGGAGTATTGCGGAGGAAGG + anchor), 100 nM annealed; ATP concentration: 500 uM; one replicate.
Method in brief: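 The quencher-labelled ATP aptamer, at 100 nM, was annealed to Cy3-labelled switching-strand clusters on a modified Illumina MiSeq flow-cell. The clusters were imaged in selection buffer, then after 15 min with 500 uM ATP at 22 °C, and this buffer/ATP cycle ran five times with NaOH stripping and re-annealing between runs. Per-cluster fluorescence ratios, summed target-cycle over summed buffer-cycle Cy3 intensity, were averaged per switch-domain sequence. Clusters outside 100-1000 RFU were excluded.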
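Also: ATP exposure 15 min at 22 °C before imaging.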

Sequence | switch fluorescence ratio
TCAAGGTATG | 1.02
TCAAGTAAAC | 1.14
TCAAGTCGAA | 0.984
TCAATAACGA | 1.02
TCAATAGTT | 1
TCAATCTTTT | 1.01
TCAATGAACT | 1.01
TCAATGATCG | 0.912
TCAATGTCCC | 1.04
TCAATTAA | 1.07
TCAATTAGTA | 0.99
TCAATTCTAG | 0.942
TCAATTTCTT | 0.942
TCACAACTGT | 0.987
TCACAATGTA | 0.993
TCACACAAG | 1.02
TCACACGGGA | 1.03
TCACACTAGT | 1.04
TCACAGAAC | 1.06
TCACAGGGAG | 1.02
TCACCAGCGA | 1.62
TCACCCCGC | 1.24
TCACCTAAGG | 1.03
TCACCTTCAT | 1.61
TCACGAGGAC | 0.915
TCACGATGCG | 1.06

Sequence | switch fluorescence ratio
TCACGCACGC | 1.85
TCACGCTTAC | 4.11
TCACGGACCC | 1.43
TCACGGCTCT | 1.06
TCACGGGGAC | 1.11
TCACGGTCTT | 1.01
TCACGTTTGG | 1.01
TCACTCAGTG | 1.01
TCACTGAAGG | 0.994
TCACTGGAAT | 1.05
TCACTTATTT | 1.02
TCACTTGGTT | 1.06
TCAGAAAACG | 0.996
TCAGAAATTA | 1.01
TCAGACTCTC | 1.42
TCAGAGCACT | 1.12
TCAGATAAAA | 0.999
TCAGATGTAT | 0.989
TCAGATTACT | 0.978
TCAGCCCACA | 1.04
TCAGCCCCGC | 1.02
TCAGCCGACG | 1.09
TCAGCCGTAC | 1.14
TCAGCGTCG | 1.02
TCAGGAAGTG | 0.961
TCAGGATAC | 1.6

Sequence | switch fluorescence ratio
TCAGGCCTGT | 1.01
TCAGGCGGCC | 0.965
TCAGGCGGGA | 1.01
TCAGGCTGGT | 1.01
TCAGGGTCAC | 0.948
TCAGGTATAT | 0.987
TCAGGTGTCC | 1.38
TCAGTAAAGC | 1
TCAGTAGT | 1.09
TCAGTATTGC | 1.05
TCAGTTGACA | 1.03
TCATAAAGGC | 1.02
TCATAACCCG | 1.08
TCATAACGGG | 0.995
TCATAAGTAG | 0.992
TCATAATTTG | 0.968
TCATACGTGG | 1.03
TCATAGCTTA | 0.978
TCATATCCGC | 1.32
TCATATGTCG | 1.16
TCATCCAAAG | 1.13
TCATCCAATG | 1.02
TCATCCATTG | 0.999
TCATCTTACT | 1.05
TCATCTTGGG | 1.01
TCATGATGTT | 0.99

Sequence | switch fluorescence ratio
TCATGCTGGG | 1.02
TCATGGCAGC | 0.957
TCATGGGCAT | 1.05
TCATGGGGCA | 1.07
TCATGTAATA | 1.04
TCATGTCGCG | 0.968
TCATGTGTGC | 1.03
TCATTACTTG | 1.04
TCATTCTAC | 1.05
TCATTGAGAG | 0.991
TCATTGGAA | 0.998
TCATTGGCAG | 1.03
TCATTGTCGA | 0.972
TCATTTCTGG | 0.98
TCATTTGCCA | 1.08
TCATTTTCTC | 0.996
TCATTTTTTG | 0.997
TCCAAAGCTT | 1.25
TCCAACAAGA | 1.3
TCCAAGGATA | 1.01
TCCACTAAGA | 1.07
TCCACTAGAC | 2.4
TCCACTGGGA | 1.02
TCCACTTAGC | 0.977
TCCACTTCTC | 1.09
TCCAGCGCTT | 1.3

Sequence | switch fluorescence ratio
TCCAGGGTGT | 2.54
TCCAGTACAC | 1.09
TCCAGTTTTG | 1
TCCATAGCGT | 2.08
TCCATCCGGT | 1.16
TCCATCTTA | 0.978
TCCATGCACA | 1.11
TCCATGCAGG | 1.03
TCCATGTTGC | 0.932
TCCATTGACG | 1.1
TCCATTGAGC | 1.06
TCCATTGGT | 1.02
TCCATTTAA | 1.05
TCCCACAACT | 1.11
TCCCACTCGC | 1.14
TCCCACTTT | 1.02
TCCCATCTTT | 1.02
TCCCCCCCCC | 1.92
TCCCCCTTAC | 3.08
TCCCCGACCT | 1.32
TCCCCTGAAC | 1.14
TCCCCTTCCA | 1.05
TCCCGATTGT | 0.987
TCCCGCCCC | 1.73
TCCCGCTATT | 2.6
TCCCGGAAGT | 1.02

Sequence | switch fluorescence ratio
TCCCGGACAG | 1.02
TCCCGGTATT | 0.984
TCCCGTTA | 1.03
TCCCTATAGA | 1.02
TCCCTCCTAT | 1
TCCCTGTCGG | 1
TCCCTTCGGC | 0.959
TCCGAACAGT | 1.12
TCCGACATGG | 1.1
TCCGAGCGGG | 1.39
TCCGAGGGG | 1.04
TCCGGAGCAG | 1.93
TCCGGATTG | 1.04
TCCGGCAGAT | 1.3
TCCGGCCTTC | 1.05
TCCGGGACAT | 1.07
TCCGGGAGCG | 1.28
TCCGGGGAAG | 0.992
TCCGGGTTAC | 3.85
TCCGGTCCGG | 0.998
TCCGTCCTTT | 0.975
TCCGTGGGCC | 1.04
TCCTAATCGG | 1.02
TCCTACTCAT | 1.87
TCCTAGACT | 1.01
TCCTATCTAT | 0.954

Sequence | switch fluorescence ratio
TCCTCAGAAC | 1.7
TCCTCAGTCC | 1.4
TCCTCGCGAA | 4.8
TCCTCGCTGT | 4.13
TCCTCTACTA | 1.48
TCCTCTCATA | 2.56
TCCTCTCGGG | 1.19
TCCTCTTGTC | 1.01
TCCTGCGAGC | 1.18
TCCTGGGGGT | 1.07
TCCTTATTGT | 0.974
TCCTTCGTTT | 2
TCCTTCTTTC | 1.1
TCCTTGGCGT | 0.975
TCCTTGTGAG | 1.04
TCCTTTACA | 1.03
TCCTTTGCCT | 1.22
TCCTTTTAAA | 1.04
TCGAAATCAA | 0.985
TCGAAATTCC | 1.11
TCGAACATGC | 1.22
TCGAACCTTT | 1
TCGAACGCAG | 2.2
TCGAAGGATT | 1.05
TCGAATATAG | 0.986
TCGAATTCGT | 0.993

Sequence | switch fluorescence ratio
TCGACACCTG | 1.08
TCGACGTATT | 1.09
TCGACGTTAG | 1.05
TCGACTAGCG | 1.04
TCGACTATGT | 1
TCGACTATTG | 0.911
TCGAGAATGA | 0.995
TCGAGAGCCG | 0.998
TCGAGATTTT | 1
TCGAGCGGCG | 0.89
TCGAGCTTTC | 1.18
TCGATAAGGT | 1.01
TCGATACGTT | 1
TCGATGATGC | 1.16
TCGATGTCTA | 1.01
TCGATTCGGA | 1.03
TCGCAACTAT | 3.4
TCGCACCGCC | 1.2
TCGCACGAGC | 1.26
